Like-named read-outs stand apart in the source and are kept apart here.
Test system: HepG2 cells
Type: cell-based
Description: Two different compound exposure scenarios were performed: a single exposure in 2D and a 4-day repeated exposure in 3D. A schematic overview of the tested exposure scenarios for each HepG2 model has been depicted in Figure 1. For the single exposure scenario in 2D, medium was replaced by freshly diluted compound in medium 24 h post seeding. DDRs were monitored after 24, 48 and 72 h by live cell confocal imaging (Figure 1A and B). For the 4-day repeated exposure scenario in 3D, each day medium was replaced by freshly diluted compound in medium for four consecutive days (Figure 1C and D). The imaging was started 24 h after the last exposure. For both scenarios, five compounds in eight concentrations were tested. DMSO, PBS or ultrapure H2O were used as solvent controls. The ATP-lite luminescence kit (Perkin Elmer) was used according to supplier’s protocol to measure cell viability. Measurements were performed 72 h or 24 h post single or repeated exposure, respectively. Absolute IC50 values have been calculated over the ATP-lite data by determining the intersect of the fitted concentration–response curve with the 50% viability baseline via GraphPad prism 8.1.1.
Prior to imaging, cells were stained with Hoechst 33342 at a concentration of 0.1 µg/ml to visualise the nuclei. To examine compound-induced cell death using confocal microscopy, propidium iodide (PI) was added during all compound exposures at a concentration of 100 µM to stain for necrotic or late apoptotic cells. The induction of GFP intensities and PI were monitored with a Nikon Eclipse Ti confocal laser microscope (Nikon, Amsterdam, The Netherlands), equipped with lasers at wavelengths 408, 488 and 561, an automated stage and perfect focus system at 37°C and 5% CO2. Images for 2D cultures were acquired with a Nikon 20x Dry Plan Apo VC NA 0.75 objective. Images for 3D cultures were acquired with a Nikon 10x Dry Plan Fluor NA 0.3 objective. For each condition, a z-stack of 9–11 images was generated with a step size of 30 µm.
For 2D cultures, image quantification was performed with Cell Profiler version 2.2.0 (Broad Institute, Cambridge, USA) using modules described previously ([14]). Nuclei segmentation based on Hoechst was done in ImageJ using an in-house developed macro based on the watershed masked clustering algorithm ([27]). Segmentation of the cytoplasmic area was done using the Distance N method expanding the edges of nuclear objects with six pixels followed by subtraction of the nuclear area. p21 and p53-GFP intensities were measured in the nuclei and BTG2-GFP in the cytoplasm. The PI-positive cells were identified by an overlay of the PI signal and the segmented nuclei. A cell was considered positive when there was at least 10% overlap. Results were stored in HDF5 format ([28]). To extract summarised data for further analysis and visualisation, in-house developed R-scripts were used in RStudio (version 1.0.153) (Boston, MA, USA) ([29–31]). The mean nuclear and cytoplasmic intensities of all measured single cells and the fraction of PI-positive cells for each image were extracted as output from the HDF5 files.
For 3D cultures, the NIS Elements analysis software (Nikon, Amsterdam, The Netherlands) was used to quantify the GFP intensity and PI-positive area within spheroids. […] The GFP intensity was measured in the spheroids and the PI-positive area within spheroids was determined by the overlap of PI signal within spheroids. […]

Cc1c(-c2ccc(-c3ccccc3F)cc2)nc2ccc(F)cc2c1C(=O)O [Brequinar]
cell death (HepG2 2D, normal DMEM medium): no cell death | concentration at which cell death was induced (HepG2 3D in both medium types or 2D with AAGLY medium, highest concentration): 100 µM

N.N.[Cl][Pt][Cl] [Cisplatin]
cell death (HepG2 grown in AAGLY medium): No cell death | concentration at which cell death was observed (HepG2 in normal DMEM medium, 2D or 3D): higher than 10 µM

Nc1ccn([C@@H]2O[C@H](CO)[C@@H](O)C2(F)F)c(=O)n1 [Gemcitabine]
cell death induction: did not show cell death induction
